# Measured values: PubChem BioAssay AID1476 (National Center for Advancing Translational Sciences (NCATS), 2009)
# Out of some 200,000 compounds screened, about 4,500 (2.2%) were called active. Inconclusive results, whose numbers are uncertain, are shown with a selection of clear calls. Calls follow the shape of the dose curve; as a rule, active = well fitted inhibition curve with a large enough effect; inconclusive = small, poorly fitted or top-dose-only effect, or effect the other way; inactive = flat fitted curve, though single readings scatter. Potencies beside an inconclusive call are fits to weak or partial responses and may not hold up.
# Molecular target: Cruzipain (Trypanosoma cruzi) (UniProt P25779)
# Test: qHTS Assay for Promiscuous and Specific Inhibitors of Cruzain (without detergent); also: nearly all actives have a fitted effect of over 40% in size;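 as to max response, negative = inhibition: plate controls were enzyme without inhibitor for no effect and buffer without enzyme for full effect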
# Conditions: purified cruzain, Z-FR-AMC fluorescence, no detergent
# Outline: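 Detergent-free condition (0.00005% Triton X-100) in acetate buffer pH 5.5 with DTT. 1.5 nM enzyme and compound were pre-mixed 15 min, then 2 uM Z-FR-AMC substrate added; reaction progress from fluorescence change between first and third reads (60 s).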
# Potency is read from the fitted curve at half-maximal effect; tags tell the direction and shape of the fitted curve.
# Sequence of UniProt P25779 (P25779 whole entry, looked up): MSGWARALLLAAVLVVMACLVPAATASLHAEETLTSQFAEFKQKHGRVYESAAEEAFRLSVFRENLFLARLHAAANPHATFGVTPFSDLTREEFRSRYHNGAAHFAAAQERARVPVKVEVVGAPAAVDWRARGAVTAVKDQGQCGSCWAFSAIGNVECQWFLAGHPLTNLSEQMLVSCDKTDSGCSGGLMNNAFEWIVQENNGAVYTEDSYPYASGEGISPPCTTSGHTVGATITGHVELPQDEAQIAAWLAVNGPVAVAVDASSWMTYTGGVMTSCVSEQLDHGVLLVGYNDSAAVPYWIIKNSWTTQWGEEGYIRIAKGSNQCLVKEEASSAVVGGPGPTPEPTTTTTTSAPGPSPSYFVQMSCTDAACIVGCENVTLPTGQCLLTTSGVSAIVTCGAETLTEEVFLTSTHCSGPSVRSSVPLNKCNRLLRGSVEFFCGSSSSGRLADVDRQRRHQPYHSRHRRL
SMILES,Potency,"max response, negative = inhibition"
CC1=C(C(=O)Nc2ccc(Cl)cc2)C(c2cccs2)n2nc(SCc3cccc(Cl)c3)nc2N1 (stereo not given),active: 3.16 µM,–
Cc1cn2c(=O)cc(COC(=O)c3cccc(NC(=O)C(C)Oc4ccccc4)c3)nc2s1 (stereo not given),–,inactive: -0.134%
c1ccc2c(CN3CCN(C4CCCCC4)CC3)c[nH]c2c1,"inconclusive: 31.6 µM [inhibitor, single point]",–
CCC(C)C(=O)Nc1nc(C)c(-c2csc(Nc3ccccc3OC)n2)s1 (stereo not given),"inconclusive: 31.6 µM [inhibitor, single point]",–
CCOC(=O)c1ccc(NC(=S)Nc2cccc(C)n2)cc1,"inconclusive: 39.8 µM [inhibitor, single point]",–
COc1ccc(-c2c(C)nn3c(N4CCN(Cc5ccccc5)CC4)cc(C)nc23)cc1OC,"inconclusive: 39.8 µM [activator, single point]",–
O=C(CNC(=O)c1cccc(F)c1)OCC(=O)N1CCCCC1,"inconclusive: 25.1 µM [inhibitor, single point]",–
O=C(O)[C@@H]1CCN(Cc2oc(CO)cc(=O)c2O)C1,–,inactive: 9.12%
COc1cc(OC)c(NC(=O)C(C)n2c(=O)cc(-c3ccccc3)c3c(C)nn(C)c32)cc1Cl (stereo not given),"inconclusive: 6.31 µM [activator, single point]",–
Cc1ccc(-c2csc(NC(=O)CSC3=NCCS3)n2)cc1,"inconclusive: 31.6 µM [inhibitor, single point]",–
COc1ccccc1CCNC(=O)c1cc2c(=O)n3cccc(C)c3nc2n1C,"inconclusive: 31.6 µM [inhibitor, single point]",–
O=C1OC(c2ccccc2)=C/C1=C\N1CCOCC1,"inconclusive: 1.58 µM [activator, single point]",–
CCC(CC)C(=O)Nc1cccc(-c2nc3cccnc3s2)c1,–,inactive: -14.1%
COc1ccc(-c2nnc(SCc3cccnc3)o2)cc1,–,inactive: 15.4%
CCOC(=O)C1CCCN(c2nc3ccccc3nc2C(C#N)C(=O)OC(C)COC)C1 (stereo not given),"inconclusive: 39.8 µM [activator, single point]",–
O=C(COC(=O)CNC(=O)c1ccccc1F)NCCC1=CCCCC1,active: 10 µM,–
COc1ccc(-c2cc(=O)oc3cc(OCC(=O)c4cccc([N+](=O)[O-])c4)ccc23)cc1,active: 25.1 µM,–
O=C(Nc1ccc(F)cc1)c1ccc(-n2cnc3cccnc32)cc1,–,inactive: -3.24%
COCCN(CCOC)c1ncnc2c1cnn2-c1ccc(Cl)cc1,"inconclusive: 39.8 µM [activator, single point]",–
CC(OC(=O)c1nc(-c2ccccc2)n(-c2ccccc2)n1)C(=O)Nc1cc(Cl)cc(Cl)c1 (stereo not given),"inconclusive: 39.8 µM [inhibitor, single point]",–
